# Reference: PMC9911399, “Two distinct binding modes provide the RNA-binding protein RbFox with extraordinary sequence specificity”
# Residue numbers refer to the chain shown, from its start. The list shows a part of the results.
# T1: RBFOX1 RRM RbFoxmut (Fox-RRM*) (Homo sapiens, UniProt Q9NWB1 109-208, R118D;E147R;N151S;E152T)
# T1 sequence: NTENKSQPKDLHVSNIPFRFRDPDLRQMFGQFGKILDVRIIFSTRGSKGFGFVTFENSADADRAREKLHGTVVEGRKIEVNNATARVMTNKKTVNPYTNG
# B1: UGACCGU (DNA:RNA)
# RNA: GGGAGACCGGAAUUCAGAUUGUCCUGACCGUUUAAAUCCCGUCGUAGCCACCA
# DNA 1: CAATCTGAATTCCGGTCTCCC
# DNA 2: TGGTGGCTACGACGGGATT
# B2: GACAAGU (DNA:RNA)
# RNA: B1 RNA with U25G, G26A, A27C, C28A, C29A
# DNA 1: CAATCTGAATTCCGGTCTCCC
# DNA 2: TGGTGGCTACGACGGGATT
# B3: GAUCACU (DNA:RNA)
# RNA: B1 RNA with U25G, G26A, A27U, C29A, G30C
# DNA 1: CAATCTGAATTCCGGTCTCCC
# DNA 2: TGGTGGCTACGACGGGATT
# B4: GGGUUAA (DNA:RNA)
# RNA: B1 RNA with U25G, A27G, C28U, C29U, G30A, U31A
# DNA 1: CAATCTGAATTCCGGTCTCCC
# DNA 2: TGGTGGCTACGACGGGATT
# B5: GGUCGCA (DNA:RNA)
# RNA: B1 RNA with U25G, A27U, C29G, G30C, U31A
# DNA 1: CAATCTGAATTCCGGTCTCCC
# DNA 2: TGGTGGCTACGACGGGATT
# B6: UCAGUAU (DNA:RNA)
# RNA: B1 RNA with G26C, C28G, C29U, G30A
# DNA 1: CAATCTGAATTCCGGTCTCCC
# DNA 2: TGGTGGCTACGACGGGATT
# B7: UAACAUG (DNA:RNA)
# RNA: B1 RNA with G26A, C29A, G30U, U31G
# DNA 1: CAATCTGAATTCCGGTCTCCC
# DNA 2: TGGTGGCTACGACGGGATT
# B8: UUGGGGA (DNA:RNA)
# RNA: B1 RNA with G26U, A27G, C28G, C29G, U31A
# DNA 1: CAATCTGAATTCCGGTCTCCC
# DNA 2: TGGTGGCTACGACGGGATT
# B9: UCCAACA (DNA:RNA)
# RNA: B1 RNA with G26C, A27C, C28A, C29A, G30C, U31A
# DNA 1: CAATCTGAATTCCGGTCTCCC
# DNA 2: TGGTGGCTACGACGGGATT
# B10: AGCAGUU (DNA:RNA)
# RNA: B1 RNA with U25A, A27C, C28A, C29G, G30U
# DNA 1: CAATCTGAATTCCGGTCTCCC
# DNA 2: TGGTGGCTACGACGGGATT
# B11: UUAUCAG (DNA:RNA)
# RNA: B1 RNA with G26U, C28U, G30A, U31G
# DNA 1: CAATCTGAATTCCGGTCTCCC
# DNA 2: TGGTGGCTACGACGGGATT
# B12: GUACAAU (DNA:RNA)
# RNA: B1 RNA with U25G, G26U, C29A, G30A
# DNA 1: CAATCTGAATTCCGGTCTCCC
# DNA 2: TGGTGGCTACGACGGGATT
# B13: CUGACCG (DNA:RNA)
# RNA: B1 RNA with U25C, G26U, A27G, C28A, G30C, U31G
# DNA 1: CAATCTGAATTCCGGTCTCCC
# DNA 2: TGGTGGCTACGACGGGATT
# B14: GCCGUGC (DNA:RNA)
# RNA: B1 RNA with U25G, G26C, A27C, C28G, C29U, U31C
# DNA 1: CAATCTGAATTCCGGTCTCCC
# DNA 2: TGGTGGCTACGACGGGATT
# B15: CUUGAUU (DNA:RNA)
# RNA: B1 RNA with U25C, G26U, A27U, C28G, C29A, G30U
# DNA 1: CAATCTGAATTCCGGTCTCCC
# DNA 2: TGGTGGCTACGACGGGATT
# B16: GUCUAGU (DNA:RNA)
# RNA: B1 RNA with U25G, G26U, A27C, C28U, C29A
# DNA 1: CAATCTGAATTCCGGTCTCCC
# DNA 2: TGGTGGCTACGACGGGATT
# B17: UGUUCGG (DNA:RNA)
# RNA: B1 RNA with A27U, C28U, U31G
# DNA 1: CAATCTGAATTCCGGTCTCCC
# DNA 2: TGGTGGCTACGACGGGATT
# B18: AACCACA (DNA:RNA)
# RNA: B1 RNA with U25A, G26A, A27C, C29A, G30C, U31A
# DNA 1: CAATCTGAATTCCGGTCTCCC
# DNA 2: TGGTGGCTACGACGGGATT
# B19: CCAUUAA (DNA:RNA)
# RNA: B1 RNA with U25C, G26C, C28U, C29U, G30A, U31A
# DNA 1: CAATCTGAATTCCGGTCTCCC
# DNA 2: TGGTGGCTACGACGGGATT
# B20: AGUCAUG (DNA:RNA)
# RNA: B1 RNA with U25A, A27U, C29A, G30U, U31G
# DNA 1: CAATCTGAATTCCGGTCTCCC
# DNA 2: TGGTGGCTACGACGGGATT
# B21: AUUCCUA (DNA:RNA)
# RNA: B1 RNA with U25A, G26U, A27U, G30U, U31A
# DNA 1: CAATCTGAATTCCGGTCTCCC
# DNA 2: TGGTGGCTACGACGGGATT
# B22: UAUCAGG (DNA:RNA)
# RNA: B1 RNA with G26A, A27U, C29A, U31G
# DNA 1: CAATCTGAATTCCGGTCTCCC
# DNA 2: TGGTGGCTACGACGGGATT
# B23: CCUGCAC (DNA:RNA)
# RNA: B1 RNA with U25C, G26C, A27U, C28G, G30A, U31C
# DNA 1: CAATCTGAATTCCGGTCTCCC
# DNA 2: TGGTGGCTACGACGGGATT
# B24: UGCUACC (DNA:RNA)
# RNA: B1 RNA with A27C, C28U, C29A, G30C, U31C
# DNA 1: CAATCTGAATTCCGGTCTCCC
# DNA 2: TGGTGGCTACGACGGGATT
# B25: CGGAGAC (DNA:RNA)
# RNA: B1 RNA with U25C, A27G, C28A, C29G, G30A, U31C
# DNA 1: CAATCTGAATTCCGGTCTCCC
# DNA 2: TGGTGGCTACGACGGGATT
# B26: CUCAAGG (DNA:RNA)
# RNA: B1 RNA with U25C, G26U, A27C, C28A, C29A, U31G
# DNA 1: CAATCTGAATTCCGGTCTCCC
# DNA 2: TGGTGGCTACGACGGGATT
# B27: AUAGGCA (DNA:RNA)
# RNA: B1 RNA with U25A, G26U, C28G, C29G, G30C, U31A
# DNA 1: CAATCTGAATTCCGGTCTCCC
# DNA 2: TGGTGGCTACGACGGGATT
# B28: AGAGCGC (DNA:RNA)
# RNA: B1 RNA with U25A, C28G, U31C
# DNA 1: CAATCTGAATTCCGGTCTCCC
# DNA 2: TGGTGGCTACGACGGGATT
# B29: GGCAGUA (DNA:RNA)
# RNA: B1 RNA with U25G, A27C, C28A, C29G, G30U, U31A
# DNA 1: CAATCTGAATTCCGGTCTCCC
# DNA 2: TGGTGGCTACGACGGGATT
# B30: GGUCCGU (DNA:RNA)
# RNA: B1 RNA with U25G, A27U
# DNA 1: CAATCTGAATTCCGGTCTCCC
# DNA 2: TGGTGGCTACGACGGGATT
# B31: UAAUAGA (DNA:RNA)
# RNA: B1 RNA with G26A, C28U, C29A, U31A
# DNA 1: CAATCTGAATTCCGGTCTCCC
# DNA 2: TGGTGGCTACGACGGGATT
# Target: T1, RBFOX1 RRM RbFoxmut (Fox-RRM*)
# Assay: EMSA; HiTS-Eq, 1 nM pool, 10 min; buffer printed only for the single-RNA assays: 10 mM Tris pH 7.5, 150 mM NaCl, 3.4 mM EDTA, 0.001% NP-40, 30 C
# Conditions: tags: His6 N-terminal (pET28a); label: 5' 32P
# Summary of the method: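 Purified RbFox RRM (wild type or mutant) was equilibrated for 10 min in 50 µL with 1 nM of a 5′-radiolabelled pool of RNA with 7 randomized nucleotides, its flanks annealed to DNA oligonucleotides, across increasing protein concentrations. Free RNA was separated by 8% native PAGE, excised, reverse-transcribed, PCR-barcoded and sequenced on an Illumina HiSeq 2500. Relative association constants came from read-count changes of each variant against the control reaction, normalised to the cognate motif.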
row,Binder,binding signal
1,B1,0.105 KA relative to UGCAUGU
2,B2,0.052 KA relative to UGCAUGU
3,B3,0.0566 KA relative to UGCAUGU
4,B4,0.0954 KA relative to UGCAUGU
5,B5,0.141 KA relative to UGCAUGU
6,B6,0.116 KA relative to UGCAUGU
7,B7,0.0703 KA relative to UGCAUGU
8,B8,0.0745 KA relative to UGCAUGU
9,B9,0.0867 KA relative to UGCAUGU
10,B10,0.0774 KA relative to UGCAUGU
11,B11,0.0956 KA relative to UGCAUGU
12,B12,0.0653 KA relative to UGCAUGU
13,B13,0.125 KA relative to UGCAUGU
14,B14,0.114 KA relative to UGCAUGU
15,B15,0.0829 KA relative to UGCAUGU
16,B16,0.138 KA relative to UGCAUGU

row,Binder,binding signal
1,B17,0.154 KA relative to UGCAUGU
2,B18,0.078 KA relative to UGCAUGU
3,B19,0.12 KA relative to UGCAUGU
4,B20,0.167 KA relative to UGCAUGU
5,B21,0.098 KA relative to UGCAUGU
6,B22,0.0783 KA relative to UGCAUGU
7,B23,0.09 KA relative to UGCAUGU
8,B24,0.147 KA relative to UGCAUGU
9,B25,0.0725 KA relative to UGCAUGU
10,B26,0.0692 KA relative to UGCAUGU
11,B27,0.115 KA relative to UGCAUGU
12,B28,0.103 KA relative to UGCAUGU
13,B29,0.114 KA relative to UGCAUGU
14,B30,0.136 KA relative to UGCAUGU
15,B31,0.0775 KA relative to UGCAUGU
